Out of some 310,000 compounds screened, about 14,000 (4.5%) showed an effect of 50% or more. Effects have a minus sign here. This is one part of the list.
What follows are molecules tested against human ether-à-go-go-related gene (hERG) potassium channel (human, UniProt Q12809) (assay: primary screen, population patch clamp on CHO cells stably expressing hERG).
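Note: peak tail current of the secondary pulse compared with the same well before compound.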

Chain of human ether-à-go-go-related gene (hERG) potassium channel (Q12809 whole entry, looked up): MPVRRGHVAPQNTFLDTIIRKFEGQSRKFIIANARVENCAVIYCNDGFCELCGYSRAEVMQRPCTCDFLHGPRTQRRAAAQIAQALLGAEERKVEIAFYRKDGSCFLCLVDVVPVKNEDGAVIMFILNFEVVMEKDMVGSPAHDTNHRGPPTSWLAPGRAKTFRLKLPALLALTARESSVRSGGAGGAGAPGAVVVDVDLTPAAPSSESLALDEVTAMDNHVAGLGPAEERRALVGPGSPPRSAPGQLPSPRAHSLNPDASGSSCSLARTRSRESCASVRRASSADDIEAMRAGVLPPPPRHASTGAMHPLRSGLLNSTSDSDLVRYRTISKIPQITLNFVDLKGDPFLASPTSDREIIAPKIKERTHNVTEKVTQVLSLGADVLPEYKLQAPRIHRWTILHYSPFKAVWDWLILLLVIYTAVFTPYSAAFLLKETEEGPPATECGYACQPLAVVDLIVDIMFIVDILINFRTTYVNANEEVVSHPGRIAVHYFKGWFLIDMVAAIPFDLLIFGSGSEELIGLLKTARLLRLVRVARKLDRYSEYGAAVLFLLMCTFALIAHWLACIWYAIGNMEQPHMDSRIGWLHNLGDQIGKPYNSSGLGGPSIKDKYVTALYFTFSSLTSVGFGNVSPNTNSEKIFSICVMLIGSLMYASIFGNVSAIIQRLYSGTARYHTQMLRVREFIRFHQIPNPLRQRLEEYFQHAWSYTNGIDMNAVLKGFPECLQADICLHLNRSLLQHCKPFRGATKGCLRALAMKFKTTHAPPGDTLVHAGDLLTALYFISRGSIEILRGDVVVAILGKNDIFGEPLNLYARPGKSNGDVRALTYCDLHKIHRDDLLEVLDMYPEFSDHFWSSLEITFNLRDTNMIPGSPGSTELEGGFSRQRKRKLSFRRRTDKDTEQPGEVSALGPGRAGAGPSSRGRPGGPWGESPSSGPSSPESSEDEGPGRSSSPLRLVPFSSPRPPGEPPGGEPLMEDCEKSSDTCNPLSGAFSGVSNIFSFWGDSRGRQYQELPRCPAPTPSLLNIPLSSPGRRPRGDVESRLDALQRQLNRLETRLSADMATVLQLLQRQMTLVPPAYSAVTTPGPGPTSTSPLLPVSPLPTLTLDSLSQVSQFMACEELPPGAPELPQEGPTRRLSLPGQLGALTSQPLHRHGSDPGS

| SMILES | hERG current change (%, negative = inhibition) at 10uM |
| --- | --- |
| Cc1nc2[nH]c(=S)[nH]c2cc1Br | 17.4% |
| Cc1[nH][nH]c(=O)c1C(c1ccc(O)c(Br)c1)c1c(C)[nH][nH]c1=O | 4.34% |
| CS(=O)(=O)N1CCC(C(=O)Nc2ccccc2Cl)CC1 | 18.4% |
| Cc1ccc2c(c1)N(CC(=O)NCCc1c[nH]c3ccccc13)C(=O)CO2 | -15.4% |
| CCOC(=O)C(CC)(CC)C(=O)/C=C/c1cccc(Br)c1 | 7.17% |
| CCC(=O)c1c(NC(CC)CO)cc(C)oc1=O (stereo not drawn) | 6.24% |
| N#CC1(NC(=O)COC(=O)c2nc(Cl)c(Cl)c(N)c2Cl)CCCCC1 | -29.7% |
| COc1ccc(C(=O)NCC(c2cccnc2)N2CCN(c3ccccc3OC)CC2)cc1OC (stereo not drawn) | -5.3% |
| COc1ccc(-c2csc(Nc3ccccc3)[n+]2CC(O)c2ccc([N+](=O)[O-])cc2)cc1.[Br-] (stereo not drawn) | 13% |
| CCOc1ccc(NC(=O)Nc2ccc3c(c2)CCC3)cc1 | -29.4% |
| Cc1ccc(C)c(-n2ccnc2SCC(N)=O)c1 | 15.6% |
| CSc1ccccc1NC(=O)Cc1ccccc1 | 13.8% |
| COc1ccc2[nH]c(=O)c(CN(Cc3ccccc3)Cc3nnnn3CC3CCCO3)cc2c1 (stereo not drawn) | -4.75% |
| N=C1S/C(=C\c2cn[nH]c2-c2ccc(F)cc2)C(=O)N1c1ccccc1F | 3.44% |
| O=C(COc1ccc(S(=O)(=O)N2CCCC2)cc1Cl)NCc1ccco1 | -25.3% |
| CC(=O)c1c(C)[nH]c(C(=O)COC(=O)c2nccnc2N)c1C | -8.55% |
| O=C(NCCO)c1nc(C(=O)c2ccc(Cl)cc2)c2ccccc2n1 | -0.748% |
| CCCCN(C)C(=O)c1nc2ccccn2c1CN1CCC[C@H]1CO | 3.21% |
| O=C1c2cccc(OCC(=O)N3N=C(c4cccs4)CC3c3ccc(F)cc3)c2CCN1Cc1cccnc1 (stereo not drawn) | -15.1% |
| CC(C)(C)n1nc(C2CC2)cc1NC(=O)Nc1ccc(Cl)cc1 | 25.4% |
| Cc1cc(=O)cc(C)n1-c1ccc(Br)cc1 | 12.1% |

| SMILES | hERG current change (%, negative = inhibition) at 10uM |
| --- | --- |
| Cc1ccc2nc(Cn3cc(C(F)(F)F)ccc3=O)cc(=O)n2c1 | 0.435% |
| Cc1cc2oc3ccc(NCCCN4CCOCC4)cc3c(=O)c2cc1C | 10.8% |
| C=CCn1c(C(CC(C)C)CC(C)O)n[nH]c1=S (stereo not drawn) | 14.5% |
| Cc1ccccc1NS(=O)(=O)c1cc(C(=O)NCCC2=CCCCC2)ccc1C | -24.6% |
| COC(=O)c1noc(C)c1-c1ccnn1C(=O)c1ccc(Cl)cc1 | 15% |
| COc1ccc(C2c3ccc4ccccc4c3Oc3ncn(CCO)c(=N)c32)cc1 (stereo not drawn) | -74.2% |
| O=C(Cn1c(=O)cnc2ccccc21)NCC(=O)Nc1ccc(F)c(F)c1 | -2.38% |
| NNC(=O)Cn1nc(-c2ccccc2)c2ccccc2c1=O | 14.8% |
| Cc1ccc(C)c(CN2C(=O)c3ccccc3S(=O)c3ccc(C(=O)NCCCN4CCCC4)cc32)c1 (stereo not drawn) | -17.6% |
| O=C1C(C2=NC(C(=O)O)C3C(=O)N(c4ccccc4)C(=O)C23)=C(O)c2ccccc21 (stereo not drawn) | -10.5% |
| CSc1nnnn1CCn1nnnc1SC | 10.1% |
| Cl.O.O=C(NCCCCCCNC(=O)c1cncc(O)c1)c1cncc(O)c1 | 5.65% |
| COc1ccc(-c2nn(CCC#N)cc2C(=O)Nc2ccccc2Br)cc1[N+](=O)[O-] | -39.6% |
| CNc1ccc(/C=C/C(=O)c2ccc3c(c2)OCCO3)cc1[N+](=O)[O-] | 1% |
| COc1ccc(/C=C/c2ccc3cccc(O)c3n2)c(OC)c1OC | 21% |
| COc1ccc(-n2c(SCC[NH+](C)C)nc3ccccc3c2=O)cc1.[Cl-] | -32.6% |
| Cc1ccc(C)c(OCc2cc(C(=O)NC3CCOC(C)(C)C3)no2)c1 (stereo not drawn) | 8.47% |
| CC(C)[C@H](NC(=O)OC(C)(C)C)C(=O)N1CCC(C(=O)N[C@@H](C)C(=O)Nc2ccc(F)cc2)CC1 | 10.7% |
| Cc1ccc(S(=O)(=O)Nc2nc3ccccc3nc2NCc2ccco2)cc1 | -11.3% |
| N#Cc1c(-c2ccc3c(c2)OCO3)ccn2nc(-c3cccc(C(F)(F)F)c3)nc12 | -9.61% |
| CN(C)/C=N/c1nc2nccc(-c3ccccc3)n2n1 | 9.42% |

| SMILES | hERG current change (%, negative = inhibition) at 10uM |
| --- | --- |
| COCCCNC(=S)Nc1ccc2nc3n(c(=O)c2c1)CCCCC3 | 7.89% |
| O=C(CCc1nc2ccccc2c(=O)[nH]1)OCc1ccc(-c2ccccc2)cc1 | -0.168% |
| COc1cccc(CN(C)CC(=O)Nc2sc3c(c2C#N)CCC3)c1OC | 10.3% |
| CC(C)CN(C(=O)c1cccc(S(=O)(=O)N2CCN(C)CC2)c1)C1CCS(=O)(=O)C1 (stereo not drawn) | 15.4% |
| Cc1ccc(S(=O)(=O)N2CCN(CC(=O)Nc3ccc([N+](=O)[O-])cc3)CC2)cc1C | -76.9% |
| COC(=O)c1c(C)oc(C)c1S(=O)(=O)N(Cc1ccccc1)C(C)C | -6.25% |
| CCOc1ccc(N(CC(=O)Nc2cc(C)ccc2C)S(=O)(=O)c2c(C)[nH]c(=O)[nH]c2=O)cc1 | -0.563% |
| COc1cccc(C(=O)NCC(=O)OCC(=O)Nc2cc(OC)c([N+](=O)[O-])cc2C)c1 | -5.76% |
| O=C(c1ccco1)N1CCN(Cc2nnc(-c3cccc(Cl)c3)o2)CC1 | -45.9% |
| CS(=O)(=O)N(CC(=O)N1CCCC1)Cc1ccc(F)cc1 | 17.4% |
| COc1cc2c(cc1OC)-c1cc(Nc3ccc(C(=O)O)cc3)nc(=O)n1CC2 | 9.45% |
| CCC(C)OC(=O)C[N+](C)(C)CCOC1CC2CCC1(C)C2(C)C.[Cl-] (stereo not drawn) | -17.3% |
| CC1CC(C)CN(C(=O)C2CCN(S(=O)(=O)c3c(Cl)cccc3Cl)CC2)C1 (stereo not drawn) | -15.7% |
| CCCCn1c(N)c(N(CCC(C)C)C(=O)c2cccc(S(=O)(=O)N3CCN(C)CC3)c2)c(=O)[nH]c1=O | 5.78% |
| C=C(C)CNC(=S)NNC(=O)CCn1c2cc(Cl)ccc2c2ccc(Cl)cc21 | 11.7% |
| CCc1c(C)nc(SC)n(CC#N)c1=O | -4.77% |
| O=C(/C=C/Nc1ccccc1C(=O)O)c1cccs1 | 22.6% |
| O=C(N/N=C/c1c(O)n(CCc2ccccc2)c(=O)[nH]c1=O)c1ccccc1O | -15.9% |
| Clc1cccc(-c2noc3ncnc(Nc4ccc5c(c4)OCO5)c23)c1 | -2.65% |
| COc1ccc(/C=N/N2CCOCC2)cc1Cn1nc(C)c([N+](=O)[O-])c1C | -10.8% |
| COc1cc(C(=O)NCc2nnc(SCC(=O)N3CCCCCC3)o2)cc(OC)c1OC | 15.9% |

| SMILES | hERG current change (%, negative = inhibition) at 10uM |
| --- | --- |
| O=C1N(Cc2cccnc2)C[C@@H]2C[C@@H](c3cccc(OC4CCCC4)c3)N3CCC[C@@]123 | -69.5% |
| Cc1cccc(N2CCN(S(=O)(=O)c3ccc4[nH]c(=O)ccc4c3)CC2)c1C | -5.71% |
| Cc1c(Cl)cccc1NC(=O)CC1SCCNC1=O (stereo not drawn) | 2.98% |
| COc1ccc(C2/C(=C(/O)c3ccccc3)C(=O)C(=O)N2C)cc1OC (stereo not drawn) | 0.648% |
| O=C(NCC(=O)N1CCN(c2ccccn2)CC1)c1ccc(Br)o1 | -15.3% |
| CCOC(=O)c1c(NC(=O)CSc2nnnn2-c2ccc3c(c2)OCCO3)sc(C)c1C | 18.8% |
| CCC(CC)NC(=O)CN(c1ccccc1OC)S(=O)(=O)c1cccs1 | -11.3% |
| COc1ccccc1CNC(=O)C1Cc2cc(S(=O)(=O)N3CCCCC3)ccc2N1C(C)=O (stereo not drawn) | -3.67% |
| Cc1cc(C)c(S(=O)(=O)NCC(=O)NCc2ccccn2)c(C)c1 | -5.49% |
| O=c1[nH]c(=O)n(C(c2ccccc2)c2ccccc2)cc1Br | 12.7% |
| CCOC(=O)Cc1csc(NC(=O)C2CCCN(S(=O)(=O)c3cnc[nH]3)C2)n1 (stereo not drawn) | 1.88% |
| O=C(COC(=O)c1ccccn1)NC(=O)c1ccccc1 | -4.07% |
| Cc1nc(C)c(C(=O)OCC(=O)Nc2ccccc2SCC#N)s1 | -16.3% |
| COc1cc(NC(=O)CSc2nc3[nH]ncc3c(=O)n2-c2ccccc2C)cc(OC)c1OC | 2.58% |
| O=C(CC(c1ccccc1)c1cc(Br)ccc1O)N1CCCC1 (stereo not drawn) | -32.2% |
| O=C(Nc1nnc(-c2ccco2)o1)c1ccc(Cl)cc1 | -46.1% |
| COc1ccc(CCNc2c([N+](=O)[O-])c(=O)oc3ccccc23)cc1OC | -13.9% |
| Cc1ccc(C(=O)CCC(=O)OCC(=O)Nc2ccc3[nH]c(=O)[nH]c3c2)cc1 | 14% |
| CC12CC(NC(=O)N1c1cccc(C(=O)NCc3ccccn3)c1)c1ccccc1O2 (stereo not drawn) | 8.78% |
| CCCOc1cccc(C2C(C(=O)c3ccco3)=C(O)C(=O)N2c2nnc(C)s2)c1 (stereo not drawn) | 3.63% |
| COC(=O)CCc1c(C)c(C(=O)c2ccc(F)cc2)c2ccccn12 | 0.135% |
